Entries with a single value are a further part of the results.
Test system: stable CF patients
Assay: Phase 2 study: pulmonary function (FEV1, FVC, FEF 25-75)
Type: in vivo, human
Settings: MITT population
Method: The following dosage regimens (as nebulizer loaded doses) were evaluated: 120 mg QD (daily); 240 mg QD (daily); and 240 mg BID (twice daily).
Efficacy endpoints including clinical endpoints, pulmonary function tests, and additional microbiological parameters were assessed as change from Day 1 to subsequent visits where the endpoint data was collected. Time to need for intravenous/oral/inhaled anti-pseudomonal antimicrobials were assessed from Day 1 until final visit using survival analysis. The primary population for efficacy analysis was the EE population, but efficacy endpoints were also analyzed using the MITT population.
Changes in FEV1 (forced expiratory volume in 1 second), FVC (forced vital capacity) and FEF 25-75 (forced expiratory flow 25-75%) from Day 1 to all subsequent visits were determined for patients. Tables 26 and 27 summarize the results for FEV1 measurements in EE and MITT populations, respectively. FIGS. 7 and 8 show graphs of percent change in FEV1 (L) and percent change in FEV1(L) vs. placebo, respectively, at Day 28 for the EET population treated with placebo, 120 mg QD, 240 mg QD, or 240 mg BID. […] Tables 28 and 29 summarize the results for predicted FEVI measurements in EE and MITT populations, respectively. Tables 30 and 31 summarize results for FEF 25-75 measurements in EE and MITT populations, respectively.

With `C[C@H]1COc2c(N3CCN(C)CC3)c(F)cc3c(=O)c(C(=O)O)cn1c23` [Levofloxacin, levofloxacin] the “Change in % predicted FEV1, Day 1 to Day 14” value (“Change in % predicted FEV1” for short) (120 mg QD, mean) was 0.81, the “Change in % predicted FEV1” value (120 mg QD, median) was 1.00 and the “Change in % predicted FEV1” value (240 mg BID, mean) was 3.66. For the same compound, the “Change in % predicted FEV1” value (240 mg BID, median) was 2.50, the “Change in % predicted FEV1” value (240 mg QD, mean) was 1.70 and the “Change in % predicted FEV1” value (240 mg QD, median) was 1.00. For the same compound, the “Change in % predicted FEV1” value (combined 240 mg QD and BID, mean) was 2.69 and the “Change in % predicted FEV1” value (combined 240 mg QD and BID, median) was 2.00.

Source: patent US10792289B2 (Horizon Orphan LLC, priority 2009, dated 2020)
